Measurements as given in US20260053898A1 (FORTVITA BIOLOGICS SINGAPORE PTE, published 2026).

What was measured:
[1] = target: IL-2Rβγ complex (Fc heterodimer based on Knobs in holes: IL-2Rβ-Fc-Knob and IL-2Rγ-Fc-Hole) (human, biotin tag (avi tag)); assay: SPR Biacore T200; biotinylated IL-2Rβγ captured on SA chip, molecule in the mobile phase
[2] = target: T1, human PD1 (Catalog No. PD1-H5221, ACRO Biosystem) (human, UniProt Q15116 partial chain); assay: SPR Biacore T200; molecule captured on Protein A chip, human PD1 in the mobile phase, 1:1 binding model
T1 construct: Bought; also called antigen
T1 sequence (Q15116 25-167 limits assumed): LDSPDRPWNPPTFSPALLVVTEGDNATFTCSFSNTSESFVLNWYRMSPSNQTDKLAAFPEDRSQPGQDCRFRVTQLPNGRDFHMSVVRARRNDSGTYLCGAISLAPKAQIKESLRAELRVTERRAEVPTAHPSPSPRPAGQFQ

B1: 2061 (control molecule PD-1-IL2v, derived from US20180326010A1) (other)
heavy 1: EVQLLESGGGLVQPGGSLRLSCAASGFSFSSYTMSWVRQAPGKGLEWVATISGGGRDIYYPDSVKGRFTISRDNSKNTLYLQMNSLRAEDTAVYYCVLLTGRVYFALDSWGQGTLVTVSSASTKGPSVFPLAPSSKSTSGGTAALGCLVKDYFPEPVTVSWNSGALTSGVHTFPAVLQSSGLYSLSSVVTVPSSSLGTQTYICNVNHKPSNTKVDKKV[human IgG1 Fc with changes not listed]GGGGSGGGGSGGGGSAPASSSTKKTQLQLEHLLLDLQMILNGINNYKNPKLTRMLTAKFAMPKKATELKHLQCLEEELKPLEEVLNGAQSKNFHLRPRDLISNINVIVLELKGSETTFMCEYADETATIVEFLNRWITFAQSIISTLT
heavy 2: EVQLLESGGGLVQPGGSLRLSCAASGFSFSSYTMSWVRQAPGKGLEWVATISGGGRDIYYPDSVKGRFTISRDNSKNTLYLQMNSLRAEDTAVYYCVLLTGRVYFALDSWGQGTLVTVSSASTKGPSVFPLAPSSKSTSGGTAALGCLVKDYFPEPVTVSWNSGALTSGVHTFPAVLQSSGLYSLSSVVTVPSSSLGTQTYICNVNHKPSNTKVDKKVEPKSCDKTHTCPPCPAPEAAGGPSVFLFPPKPKDTLMISRTPEVTCVVVDVSHEDPEVKFNWYVDGVEVHNAKTKPREEQYNSTYRVVSVLTVLHQDWLNGKEYKCKVSNKALPAPIEKTISKAKGQPREPQVCTLPPSRDELTKNQVSLSCAVKGFYPSDIAVEWESNGQPENNYKTTPPVLDSDGSFFLVSKLTVDKSRWQQGNVFSCSVMHEALHNHYTQKSLSLSPGK
light: DIVMTQSPDSLAVSLGERATINCKASESVDTSDNSFIHWYQQKPGQSPKLLIYRSSTLESGVPDRFSGSGSGTDFTLTISSLQAEDVAVYYCQQNYDVPWTFGQGTKVEIKRTVAAPSVFIFPPSDEQLKSGTASVVCLLNNFYPREAKVQWKVDNALQSGNSQESVTEQDSKDSTYSLSSTLTLSKADYEKHKVYACEVTHQGLSSPVTKSFNRGEC
Kd [1]: 1.48 nM
koff [1]: 0.000134 s⁻¹
kon [1]: 90400 M⁻¹ s⁻¹
Kd [2]: 0.382 nM
koff [2]: 0.000176 s⁻¹
kon [2]: 460000 M⁻¹ s⁻¹
